{
  "source": "the supplement of paper PMC8728848",
  "binders": {"B1": {"name": "Epa15 (Candida glabrata) (protein)", "chain": "MGSSHHHHHHSSGLVPRGSHMASDPTTFPLGCSPEFTKTKKGLSMELYRYDYLPPGSYPCWDSAYLNPSYPRTGYKAKKLIATVDGVSGDINFKFNPKFGCKAIPDYLPSNFNYHEPITITNFTMILYGYFMPKTTAFHTFYVTADDLLFMNFGAGNAFDCCRREETADKFGNYAAYSVWGKKSLKNELTVYLHTGVYYPIRLFYNNRDYIAQLDIRFKTEHSNAIITNFTDYFYSVDDSSLGCPGLI"}},
  "test_in_all_cases": "glycan array binding signal (z-score within array); higher = stronger binding",
  "conditions_in_all_cases": "glycan notation: IUPAC condensed, linker removed",
  "key": {"[1]": {"target": "Neu5Ac(a2-8)Neu5Ac", "procedure,_shortened": "(§1)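 The binding signal is a Z-score computed within each array and averaged over linkers. Arrays of the same protein sequence at different concentrations or buffers were also averaged together. Data originate from 3228 arrays in the Consortium for Functional Glycomics database, kept only where the protein sequence was available.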"}, "[2]": {"target": "Neu5Ac(a2-8)Neu5Ac(a2-3)Gal(b1-3)GalNAc(b1-4)[Neu5Ac(a2-3)]Gal(b1-4)Glc", "procedure,_shortened": "as §1"}, "[3]": {"target": "Neu5Ac(a2-8)Neu5Ac(a2-3)Gal(b1-3)GalNAc(b1-4)[Neu5Ac(a2-8)Neu5Ac(a2-3)]Gal(b1-4)Glc", "procedure,_shortened": "as §1"}, "[4]": {"target": "Neu5Ac(a2-8)Neu5Ac(a2-3)Gal(b1-4)Glc", "procedure,_shortened": "as §1"}, "[5]": {"target": "Neu5Ac(a2-8)Neu5Ac(a2-3)Gal(b1-4)GlcNAc", "procedure,_shortened": "as §1"}, "[6]": {"target": "Neu5Ac(a2-8)Neu5Ac(a2-3)[Gal(b1-3)GalNAc(b1-4)]Gal(b1-4)Glc", "procedure,_shortened": "as §1"}, "[7]": {"target": "Neu5Ac(a2-8)Neu5Ac(a2-3)[GalNAc(b1-4)]Gal(b1-4)Glc", "procedure,_shortened": "as §1"}, "[8]": {"target": "Neu5Ac(a2-8)Neu5Ac(a2-8)Neu5Ac", "procedure,_shortened": "as §1"}, "[9]": {"target": "Neu5Ac(a2-8)Neu5Ac(a2-8)Neu5Ac(a2-3)Gal(b1-4)Glc", "procedure,_shortened": "as §1"}, "[10]": {"target": "Neu5Ac(a2-8)Neu5Ac(a2-8)Neu5Ac(a2-3)[Gal(b1-3)GalNAc(b1-4)]Gal(b1-4)Glc", "procedure,_shortened": "as §1"}, "[11]": {"target": "Neu5Ac(a2-8)Neu5Ac(a2-8)Neu5Ac(a2-3)[GalNAc(b1-4)]Gal(b1-4)Glc", "procedure,_shortened": "as §1"}, "[12]": {"target": "Neu5Ac(a2-8)Neu5Ac(a2-8)Neu5Ac(a2-8)Neu5Ac(a2-3)[GalNAc(b1-4)]Gal(b1-4)Glc", "procedure,_shortened": "as §1"}, "[13]": {"target": "Neu5Ac(a2-8)Neu5Gc(a2-3)Gal(b1-4)GlcNAc", "procedure,_shortened": "as §1"}, "[14]": {"target": "Neu5Ac(b2-6)Gal(b1-4)GlcNAc", "procedure,_shortened": "as §1"}, "[15]": {"target": "Neu5Ac(b2-6)GalNAc", "procedure,_shortened": "as §1"}, "[16]": {"target": "Neu5Ac9Ac(a2-3)Gal(b1-3)GlcNAc", "procedure,_shortened": "as §1"}, "[17]": {"target": "Neu5Ac9Ac(a2-3)Gal(b1-4)GlcNAc", "procedure,_shortened": "as §1"}, "[18]": {"target": "Neu5Ac9Ac(a2-6)Gal(b1-4)GlcNAc", "procedure,_shortened": "as §1"}, "[19]": {"target": "Neu5Gc(a2-3)Gal(b1-3)GlcNAc", "procedure,_shortened": "as §1"}, "[20]": {"target": "Neu5Gc(a2-3)Gal(b1-3)[Fuc(a1-4)]GlcNAc", "procedure,_shortened": "as §1"}, "[21]": {"target": "Neu5Gc(a2-3)Gal(b1-4)Glc", "procedure,_shortened": "as §1"}, "[22]": {"target": "Neu5Gc(a2-3)Gal(b1-4)GlcNAc", "procedure,_shortened": "as §1"}, "[23]": {"target": "Neu5Gc(a2-3)Gal(b1-4)GlcNAc(b1-3)Gal(b1-4)GlcNAc(b1-2)Man(a1-3)[Neu5Gc(a2-3)Gal(b1-4)GlcNAc(b1-3)Gal(b1-4)GlcNAc(b1-2)Man(a1-6)]Man(b1-4)GlcNAc(b1-4)GlcNAc", "procedure,_shortened": "as §1"}, "[24]": {"target": "Neu5Gc(a2-3)Gal(b1-4)[Fuc(a1-3)]GlcNAc", "procedure,_shortened": "as §1"}, "[25]": {"target": "Neu5Gc(a2-3)Gal(b1-4)[Fuc(a1-4)]GlcNAc", "procedure,_shortened": "as §1"}, "[26]": {"target": "Neu5Gc(a2-6)Gal(b1-4)GlcNAc", "procedure,_shortened": "as §1"}, "[27]": {"target": "Neu5Gc(a2-6)GalNAc", "procedure,_shortened": "as §1"}, "[28]": {"target": "Neu5Gc(a2-8)Neu5Ac(a2-3)Gal(b1-4)GlcNAc", "procedure,_shortened": "as §1"}, "[29]": {"target": "Neu5Gc(a2-8)Neu5Gc(a2-3)Gal(b1-4)GlcNAc", "procedure,_shortened": "as §1"}, "[30]": {"target": "Neu5Gc(a2-8)Neu5Gc(a2-3)Gal(b1-4)GlcNAc(b1-3)Gal(b1-4)GlcNAc", "procedure,_shortened": "as §1"}, "[31]": {"target": "Neu5Gc(a2-8)Neu5Gc(a2-6)Gal(b1-4)GlcNAc", "procedure,_shortened": "as §1"}, "[32]": {"target": "Neu5Gc(b2-6)Gal(b1-4)GlcNAc", "procedure,_shortened": "as §1"}},
  "note": "This is one part of the list.",
  "data": [
    {"binder": "B1", "values": [
      {"measurement": "glycan array binding signal (z-score)", "setting": "[1]", "result": -0.571},
      {"measurement": "glycan array binding signal (z-score)", "setting": "[2]", "result": -0.457},
      {"measurement": "glycan array binding signal (z-score)", "setting": "[3]", "result": 1.19},
      {"measurement": "glycan array binding signal (z-score)", "setting": "[4]", "result": -0.433},
      {"measurement": "glycan array binding signal (z-score)", "setting": "[5]", "result": -0.538},
      {"measurement": "glycan array binding signal (z-score)", "setting": "[6]", "result": 0.235},
      {"measurement": "glycan array binding signal (z-score)", "setting": "[7]", "result": 0.262},
      {"measurement": "glycan array binding signal (z-score)", "setting": "[8]", "result": -0.233},
      {"measurement": "glycan array binding signal (z-score)", "setting": "[9]", "result": -0.382},
      {"measurement": "glycan array binding signal (z-score)", "setting": "[10]", "result": -0.09},
      {"measurement": "glycan array binding signal (z-score)", "setting": "[11]", "result": 0.076},
      {"measurement": "glycan array binding signal (z-score)", "setting": "[12]", "result": -0.236},
      {"measurement": "glycan array binding signal (z-score)", "setting": "[13]", "result": -0.727},
      {"measurement": "glycan array binding signal (z-score)", "setting": "[14]", "result": 0.301},
      {"measurement": "glycan array binding signal (z-score)", "setting": "[15]", "result": -0.535},
      {"measurement": "glycan array binding signal (z-score)", "setting": "[16]", "result": -0.641},
      {"measurement": "glycan array binding signal (z-score)", "setting": "[17]", "result": -0.483},
      {"measurement": "glycan array binding signal (z-score)", "setting": "[18]", "result": -0.438},
      {"measurement": "glycan array binding signal (z-score)", "setting": "[19]", "result": -0.414},
      {"measurement": "glycan array binding signal (z-score)", "setting": "[20]", "result": -0.346},
      {"measurement": "glycan array binding signal (z-score)", "setting": "[21]", "result": -0.302},
      {"measurement": "glycan array binding signal (z-score)", "setting": "[22]", "result": -0.437},
      {"measurement": "glycan array binding signal (z-score)", "setting": "[23]", "result": -0.282},
      {"measurement": "glycan array binding signal (z-score)", "setting": "[24]", "result": -0.295},
      {"measurement": "glycan array binding signal (z-score)", "setting": "[25]", "result": -0.275},
      {"measurement": "glycan array binding signal (z-score)", "setting": "[26]", "result": -0.258},
      {"measurement": "glycan array binding signal (z-score)", "setting": "[27]", "result": -0.336},
      {"measurement": "glycan array binding signal (z-score)", "setting": "[28]", "result": -0.511},
      {"measurement": "glycan array binding signal (z-score)", "setting": "[29]", "result": -0.346},
      {"measurement": "glycan array binding signal (z-score)", "setting": "[30]", "result": -0.637},
      {"measurement": "glycan array binding signal (z-score)", "setting": "[31]", "result": -0.395},
      {"measurement": "glycan array binding signal (z-score)", "setting": "[32]", "result": 0.338}
    ]}
  ]
}
